Results published in PubChem BioAssay (NCATS).
“And” between values parts separate entries of the source, which are not always exact repeats. Identical values can stand only once. Inconclusive means that the source gave no clear call. Such entries were picked first, then a sample of the others. Where the call is inconclusive, the potency comes from a doubtful curve fit. The source made the active and inactive calls. Calls come from the whole dose curve; as a rule, active = well fitted cell-killing curve with a large enough effect; inconclusive = small, poorly fitted or top-dose-only effect, or effect the other way; inactive = no such curve, though single readings can be large or run the other way.

Experiment: Viability qHTS for spleen associated tyrosine kinase inhibitor (SYKi) naive MV4-11 cells (AID 1963823); note: nearly all actives have a fitted effect of over 40% in size
Conditions: MV4-11 AML viability, CellTiter-Glo luminescence, 72 h; viability (% of control): at 45 µM (top of the series)
How it was run: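 Read-out: CellTiter-Glo luminescence. Exposure: 72 hr, 37 C, 5% CO2, 95% humidity. Cells: MV4-11 without SYK inhibitor history, 500/well, qHTS format.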
Potency is the fitted concentration of half-maximal effect; tags give direction and shape of the fitted curve.

With `CC(C)CC(=O)O[C@@H]1OC=C(CO[C@@H]2O[C@H](CO[C@@H]3O[C@H](CO)[C@@H](O)[C@H](O)[C@H]3O)[C@@H](O)[C@H](O)[C@H]2O)[C@H]2C[C@H](O)[C@@H](CO)[C@@H]12` the Potency was “inactive”.

With `CCc1cnn2c(NCc3ccc[n+]([O-])c3)cc(N3CCCCC3CCO)nc12` (configuration not stated) the Potency was inconclusive: 0.0073 µM [cytotoxic, full curve].

For `CC(=O)O[C@@H]1C[C@@]23C[C@@]24CC[C@H](O[C@@H]2OC[C@H](O)[C@H](O)[C@H]2O)C(C)(C)[C@@H]4CC[C@H]3[C@]2(C)[C@@H](O)C34O[C@H](C[C@@H](C)[C@@H]3[C@@]12C)[C@@H](C(C)(C)O)O4`, the Potency was inconclusive: 20.6 µM [cytotoxic, partial curve, poor fit].

For `COC(=O)C[C@H]1C(C)(C)[C@H](OC(=O)c2ccccc2)C2CC3=C4CC(=O)O[C@@H](c5ccoc5)[C@]4(C)CCC3[C@@]1(C)C2=O` (some centres not stated), the Potency was inconclusive: 8.93 µM [cytotoxic, single point].

With `COc1cc(/C=C/C(=O)OC2[C@H](O)CC(O)(C(=O)O)C[C@H]2O)ccc1O` (some centres not stated) the Potency was inconclusive: 4.53 µM [rising, single point].

For `Nc1ccc(F)cc1NC(=O)c1ccc(CNC(=O)/C=C/c2cccnc2)cc1`, the Potency was active: 1.66 µM.

For `CSc1ccc2c(c1)N(CCC1CCCCN1C)c1ccccc1S2` (configuration not stated), the Potency was active: 15 µM.

With `C[C@@H]1O[C@@H](O[C@H]2[C@H](O[C@H]3CC[C@@]4(C)C(CC[C@]5(C)C4C=C[C@]46OC[C@@]7(CCC(C)(C)C[C@H]74)[C@@H](O)C[C@]65C)[C@]3(C)CO)O[C@H](CO)[C@@H](O)[C@@H]2O[C@@H]2O[C@H](CO)[C@@H](O[C@@H]3O[C@@H](C)[C@H](O)[C@@H](O)[C@H]3O)[C@H](O)[C@H]2O)[C@H](O)[C@H](O)[C@H]1O` (some centres not stated) the Potency was inconclusive: 6.93 µM [cytotoxic, single point].

With `CC(=O)Nc1ccc(O)cc1` the Potency was “inactive and inconclusive: 37.2 µM [cytotoxic, single point]”.

In the case of `C[C@]1(CO)CCC[C@]2(C)C3=C(CCC12)COC3` (some centres not stated), the Potency is reported as “inactive”.

In the case of `NC(=O)/C(=C/n1cnc(-c2cc(C(F)(F)F)cc(C(F)(F)F)c2)n1)c1cncnc1`, the Potency is reported as active: 0.132 µM.

For `Cn1ncc(Cl)c1-c1cc(C(=O)N[C@H](CN)Cc2ccc(F)c(F)c2)oc1Cl`, the Potency was active: 2.59 µM.

In the case of `C#Cc1cccc(Nc2ncnc3cc(OC)c(OC)cc23)c1`, the Potency is reported as inconclusive: 2.59 µM [cytotoxic, full curve].

In the case of `OC[C@H]1O[C@@H]2O[C@H]3[C@H](O)[C@@H](O)[C@@H](O[C@H]4[C@H](O)[C@@H](O)[C@@H](O[C@H]5[C@H](O)[C@@H](O)[C@@H](O[C@H]6[C@H](O)[C@@H](O)[C@@H](O[C@H]7[C@H](O)[C@@H](O)[C@@H](O[C@H]8[C@H](O)[C@@H](O)[C@@H](O[C@H]1[C@H](O)[C@H]2O)O[C@@H]8CO)O[C@@H]7CO)O[C@@H]6CO)O[C@@H]5CO)O[C@@H]4CO)O[C@@H]3CO`, the Potency is reported as “inactive”.

With `Cn1c(=O)c2c(ncn2Cc2ccc(C(C)(C)C)cc2)n(C)c1=O` the Potency was inconclusive: 0.92 µM [cytotoxic, full curve].

For `C[C@@H](Oc1cc(-n2cnc3ccc(OC4CCN(C)CC4)cc32)sc1C(N)=O)c1ccccc1C(F)(F)F`, the Potency was active: 0.0184 µM.

With `CC(C)Oc1ccc(C(=O)NC(CNC(=O)CN(C)C)Cc2ccc(-c3cn4cccc(C(C)O)c4n3)cc2)cc1Cl` (configuration not stated) the Potency was active: 0.13 µM.

In the case of `COc1ccc(C(=O)c2ccccc2O)c(O)c1`, the Potency is reported as inconclusive: 18.8 µM [cytotoxic, partial curve, poor fit].

For `CNc1cc(OC)c(C(=O)N[C@@H]2CCN(Cc3ccccc3)[C@@H]2C)cc1Cl`, the Potency was inconclusive: 11.6 µM [cytotoxic, partial curve].

In the case of `C=C(C(=O)OC)[C@@H]1CC=C2C=CC(=O)[C@H](C)[C@@]2(C)C1`, the Potency is reported as inconclusive: 18.4 µM [cytotoxic, single point].

With `C=C(C(=O)OC[C@H]1O[C@@H](OC(=O)/C=C/c2ccccc2)[C@H](O)[C@@H](O)[C@@H]1O)C(O)CO` (some centres not stated) the Potency was active: 7.96 µM.

In the case of `O=C(c1ccco1)N1CCNCC1`, the Potency is reported as inconclusive: 0.376 µM [cytotoxic, full curve, poor fit].

With `CC(C)S(=O)(=O)NC[C@H](C)c1ccc(NC(=O)c2cc(F)cc(F)c2)cc1` the Potency was inconclusive: 18.4 µM [cytotoxic, partial curve, poor fit].

For `C=C[C@H]1[C@H](O[C@@H]2O[C@H](CO[C@@H]3OC[C@](O)(CO)[C@H]3O)[C@@H](O)[C@H](O)[C@H]2O)OC=C2C(=O)OCC[C@H]21`, the Potency was “inactive”.

With `C=C1CC[C@@H]2[C@](C)(CO)[C@H](O)CC[C@@]2(C)[C@@H]1C/C=C1/C(=O)OC[C@@H]1O` the Potency was active: 4.53 µM.

With `CN(C)C(CCOc1cccc2ccccc12)c1ccccc1` (configuration not stated) the Potency was active: 18.4 µM.

With `CC(=O)OC12CC(C)C(O)C1/C=C(/COC1OC(CO)C(O)C(O)C1O)CCC1C(/C=C(\C)C2=O)C1(C)C` (configuration not stated) the Potency was inconclusive: 3.17 µM [rising, single point].

For `c1ccc(CNCc2ccc(CN3CCCNCCNCCCNCC3)cc2)nc1`, the Potency was “inactive”.

For `C[C@]12CCC(=O)C=C1CC[C@H]1[C@@H]3CC[C@](O)(C(=O)CO)[C@@]3(C)C[C@H](O)[C@@]12F`, the Potency was inconclusive: 0.0106 µM [rising, full curve, poor fit].

In the case of `NC1(C(=O)NC(CCO)c2ccc(Cl)cc2)CCN(c2ncnc3[nH]ccc23)CC1` (configuration not stated), the Potency is reported as active: 2.31 µM.

With `C=C1C(OC(C)=O)C(=O)C2C(C)(C)C(O)CCC2(C)C1CC(OC(C)=O)/C(C)=C/COC(C)=O` (configuration not stated) the Potency was “inactive”.

With `CC(O)(CC(=O)O)CC(=O)OCc1ccc(O[C@@H]2O[C@H](CO)[C@@H](O)[C@H](O)[C@H]2O)cc1` (some centres not stated) the Potency was “inactive”.

With `CC(C)C1(O)C=C2C(=O)CC3C(C)(C(=O)O)CCCC3(C)C2CC1` (configuration not stated) the Potency was “inactive”.

For `O=C(/C=C/c1ccc(Cl)cc1)N1CCC2(CC1)CN(Cc1ccc(Cl)c(Cl)c1)C(=O)O2`, the Potency was active: 18.6 µM.

With `CC(C)(F)CC(NC(c1ccc(-c2ccc(S(C)(=O)=O)cc2)cc1)C(F)(F)F)C(=O)NC1(C#N)CC1` (configuration not stated) the Potency was “inactive”.

For `CCOC(=O)c1ccc(OCCN2C[C@H](O)[C@@H](O)[C@H](O)[C@H]2CO)cc1`, the Potency was “inactive”.

In the case of `C[C@@]1(O)[C@H](O)[C@@H](CO)O[C@H]1n1ccc(N)nc1=O`, the Potency is reported as inconclusive: 18.4 µM [cytotoxic, partial curve].

For `COC(=O)C1C(c2ccc(O)cc2)C(C(=O)OC)C1c1ccc(O)cc1` (configuration not stated), the Potency was inconclusive: 11.4 µM [cytotoxic, single point].

For `Cn1cc(Nc2cnccc2C(=O)O)c2cccnc21`, the Potency was “inactive”.

In the case of `CC(C)(C)c1ccc(C(=O)Nc2cc(Cl)c(Br)cc2C(=O)O)cc1`, the Potency is reported as inconclusive: 11.6 µM [cytotoxic, partial curve].

For `CCN(CC)CC(=O)OCC(=O)[C@@]1(O)CC[C@H]2[C@@H]3CCC4=CC(=O)CC[C@]4(C)[C@H]3[C@@H](O)C[C@@]21C`, the Potency was “inactive”.

For `Cc1nc(CNc2ncnc3ccc(-c4ccc5c(c4)OCO5)cc23)cs1`, the Potency was active: 14.6 µM.

With `CC[C@H](CO)Nc1nc(Nc2cccc(-c3ccccn3)c2)c2ncn(C(C)C)c2n1` the Potency was active: 2.59 µM.

In the case of `CC(C)C(C(=O)N1CCCC1C(=O)O)N(C)C(=O)C(O)Cc1ccccc1` (configuration not stated), the Potency is reported as “inactive”.

With `CC(C)CCC(=O)CC1c2ccccc2C(=O)N1c1ccc2ccc(Cl)nc2n1` (configuration not stated) the Potency was inconclusive: 0.92 µM [cytotoxic, full curve].

For `C/C=C(\C)C(=O)OC[C@H]1O[C@@H](O[C@H]2[C@@H](O[C@H]3O[C@H](CO)[C@@H](O)[C@H](O)[C@H]3O[C@@H]3O[C@H](CO)[C@@H](O)[C@H](O)[C@H]3O)O[C@H](COC(=O)/C(C)=C/C)[C@@H](O)[C@@H]2O)[C@H](O)[C@@H](O)[C@@H]1O`, the viability (% of control) was inactive: 81.8% [at 9.25 µM].

In the case of `C=CC(C)(/C=C/c1ccc(O)cc1)CCC=C(C)C` (configuration not stated), the Potency is reported as inconclusive: 13 µM [cytotoxic, partial curve].

In the case of `C=C1[C@@H]2[C@H]3OC(=O)C(=C)[C@@H]3CC[C@@](C)(O)[C@@H]2C[C@@H]1O[C@@H]1O[C@H](CO)[C@@H](O)[C@H](O)[C@H]1O`, the Potency is reported as “inactive”.

For `C=C1CCC2C(C)(C(=O)O)CCCC2(C)C1CCC(C)CC(=O)O` (configuration not stated), the Potency was inconclusive: 2.02 µM [cytotoxic, full curve, poor fit].

In the case of `CC(=O)NC(C(=O)OC1CCC(C)(C)C2CC=C3C(=O)OCC3C12C)C(C)C` (configuration not stated), the Potency is reported as inconclusive: 16.1 µM [cytotoxic, partial curve, poor fit].

In the case of `OC(CCN1CCCCC1)(c1ccccc1)C1CCCCC1` (configuration not stated), the Potency is reported as inconclusive: 10.6 µM [cytotoxic, partial curve].

In the case of `COc1cc(/C=C/C(=O)N2CCN(CC(=O)N3CCCC3)CC2)cc(OC)c1OC`, the Potency is reported as “inactive”.

In the case of `CN(CCCNC(=O)c1ccc2nc3c(c(Cl)c2c1)CCCC3)Cc1ccccc1`, the Potency is reported as active: 5.8 µM.

With `Cc1scc2c1N(C(=O)CN1CCN(C)CC1)c1ccccc1NC2=O` the Potency was “inactive”.

With `O=C1NC(=O)c2cc(Nc3ccc(F)cc3)c(Nc3ccc(F)cc3)cc21` the Potency was active: 2.91 µM.

In the case of `C=CC(=O)N1CCN(C(=O)CNc2cc(-c3ccccc3Cl)c(Cl)cc2OC)CC1`, the Potency is reported as active: 10.3 µM.

With `CO[C@@H]1[C@@H](O[C@H]2O[C@@H](C)[C@H](O[C@@H]3C[C@](C)(O)[C@H](O)[C@@H](C)O3)[C@@H](N(C)C)[C@@H]2O)[C@@H](CC=O)C[C@@H](C)[C@@H](O[C@H]2CC[C@H](N(C)C)[C@H](C)O2)/C=C/C=C/C[C@@H](C)OC(=O)C[C@H]1O` the Potency was inconclusive: 16.4 µM [cytotoxic, partial curve, poor fit].
